Consider 98 compounds from PMC6919601, “Identification of Plasmodium dipeptidyl aminopeptidase allosteric inhibitors by high throughput screening” (PLoS ONE, 2019).

“And” between values parts separate entries of the source, which are not always exact repeats. Equal entries are not always repeated. Out of some 110,000 compounds screened, about 230 (0.21%) showed an effect of 50% or more. The list shows a part of the results.
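Also: 30 min substrate incubation versus DMSO and 10 µM JCP410 controls.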

The target in the assay is DPAP1 (Plasmodium falciparum, UniProt Q8IIJ9). Nature of the assay: primary screen, percent inhibition; read by cleavage of a fluorogenic dipeptide substrate; higher = more effect of the substance. Details: species or system P. falciparum D10 trophozoite lysates; single well.
DPAP1, sequence (Q8IIJ9 whole entry, looked up): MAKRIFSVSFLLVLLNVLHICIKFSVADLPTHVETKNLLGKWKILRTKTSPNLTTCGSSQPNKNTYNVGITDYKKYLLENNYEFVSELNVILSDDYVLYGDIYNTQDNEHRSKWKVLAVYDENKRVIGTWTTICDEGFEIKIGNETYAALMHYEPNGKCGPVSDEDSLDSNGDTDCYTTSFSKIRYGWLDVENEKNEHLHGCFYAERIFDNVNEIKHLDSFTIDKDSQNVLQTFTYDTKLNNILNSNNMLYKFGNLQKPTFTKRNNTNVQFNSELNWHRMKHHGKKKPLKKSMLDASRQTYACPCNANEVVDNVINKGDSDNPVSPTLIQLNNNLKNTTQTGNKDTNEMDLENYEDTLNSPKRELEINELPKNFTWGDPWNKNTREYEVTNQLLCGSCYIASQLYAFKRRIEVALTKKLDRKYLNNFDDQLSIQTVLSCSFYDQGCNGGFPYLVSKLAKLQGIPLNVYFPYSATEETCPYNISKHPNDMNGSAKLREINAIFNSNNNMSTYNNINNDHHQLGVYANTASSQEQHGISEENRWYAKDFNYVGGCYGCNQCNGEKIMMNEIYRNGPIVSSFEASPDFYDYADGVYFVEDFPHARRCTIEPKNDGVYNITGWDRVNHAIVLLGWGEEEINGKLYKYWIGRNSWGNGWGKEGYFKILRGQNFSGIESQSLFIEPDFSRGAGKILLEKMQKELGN
In the case of `N=C1S/C(=C\c2cn[nH]c2-c2ccc(F)cc2)C(=O)N1c1nccs1`, the “% Inhibition @ 10 uM” value is 8.38%.
For `Oc1ccccc1-c1nnc2n1N=C(c1ccc(Br)s1)CS2`, the “% Inhibition @ 10 uM” value is 7.41%.
Take `CC(C)N(CC#Cc1ccc(C#CCN(C(C)C)C(C)C)cc1)C(C)C`: the “% Inhibition @ 10 uM” value is given as 0.962%.
Turning to `CN(C)CCN(C(=O)COc1ccccc1)c1nc2c(F)cccc2s1`, the “% Inhibition @ 10 uM” value is on record as 0.174%.
Next, `CCn1c(C(=O)O)c(CNCc2ccccc2)c2ccc(C)cc21`: -0.397%; `Cc1c(C(=O)N2CCCC2)oc2c1-c1nn(CC(=O)NCc3ccc4c(c3)OCO4)cc1CC2`: 9.84%.
For `N#CC1=C(N)n2c(s/c(=C\c3ccccc3F)c2=O)=C(C(N)=O)C1c1ccccc1F` (centres unmarked) the value was 7.76%; for `Cc1c(C(C)c2c(C)n(C)n(-c3ccccc3)c2=O)c(=O)n(-c2ccccc2)n1C`, -4.58%.
Next, `CC1=C(C(=O)OCc2ccccc2)C(c2ccc(F)c(Br)c2)CC(=O)N1` (centres unmarked): 4.55%; `COc1ccc(C2C=C(c3ccc(Cl)cc3OC(F)F)Nc3ncnn32)cc1` (centres unmarked): -5.05%; `Cn1c(=O)c2c(-c3ccccc3)n(-n3cnnc3)cc2n(C)c1=O`: 2.32%.
In the case of `O=C(c1cccc(F)c1)N1CCN(c2nc(-c3ccc(F)cc3)cc(C(F)(F)F)n2)CC1`, the “% Inhibition @ 10 uM” value stood at 5.5%.
As to `CN(C)S(=O)(=O)c1ccc2c(c1)oc(=O)c1cc(S(=O)(=O)N(C)C)ccc12`, the “% Inhibition @ 10 uM” value is -5%.
For `CC(C)(CNC(=O)c1ccccc1)CNC1=NS(=O)(=O)c2ccccc21` the value was 7.44%; for `Cc1cc(OCC(N)=O)ccc1Cl`, -3.94%; for `CCC(C(=O)NCc1ccc(C)cc1)n1ccc2cc(S(=O)(=O)N3CCCCC3)ccc21` (centres unmarked), 3.33%.
Next, `Cc1cc(-c2noc(-c3cc4ccccc4oc3=O)n2)c2ccccc2n1`: -2.91%; `N#CCNC(=O)[C@@H](CO)NC(=O)OCc1ccccc1`: -6.56%.
Consider `CCOC(=O)N1CCN(C(=O)Cn2cnc3c(nnn3-c3ccc(F)cc3)c2=O)CC1`, for which the “% Inhibition @ 10 uM” value was -3.94%.
For `NS(=O)(=O)c1ccc(CCNC(=O)c2nc(SCc3ccc(F)cc3)ncc2Cl)cc1` the value was 4%.
Take `COc1cccc(-c2nc(SCC(=O)NCc3ccco3)c(-c3ccccc3)[nH]2)c1`: the “% Inhibition @ 10 uM” value is reported as -1.58%.
Turning to `CCN(CC)CCCCOc1ccc(C)c(C)c1`, the “% Inhibition @ 10 uM” value was determined as 4.54%.
Next, `C1CCCC(NCCN2CCCCC2)CCC1`: 3.68%; `Nc1ccc2nn(-c3ccc([N+](=O)[O-])cc3)nc2c1`: -0.636%.
Next, `CC(C)C1Oc2ccc(Cl)cc2C2CC(c3ccccc3O)=NN21` (centres unmarked): 0.0719%.
Turning to `CC(=O)c1cccc(NS(=O)(=O)c2cc(C)ccc2C)c1`, the “% Inhibition @ 10 uM” value is reported as -2.6%.
For the compound `Cc1ccc(NC(=O)C2CCCC2)c(NC(=O)C2CCCC2)c1`, the “% Inhibition @ 10 uM” value is 1.39%.
In the case of `CCCCOc1ccc(-c2nc(/C=N/c3nccs3)c(O)o2)cc1`, the “% Inhibition @ 10 uM” value is -1.65%.
Regarding `CC(=O)Nc1ccc(S(=O)(=O)Nc2cccc(C(F)(F)F)c2)cc1`, the “% Inhibition @ 10 uM” value is -1.42%.
For `Cc1cc(N2C(N)=C(C#N)C(c3cc(Cn4cncn4)cs3)C3=C2CCCC3=O)no1` (centres unmarked) the value was 1.76%; for `CCc1c(C)nc2ccc(OC)cc2c1S`, -3.77%; for `CCCCNC(=O)CN(c1ccc(F)cc1)S(=O)(=O)c1ccc2c(c1)OCCO2`, 0.795%.
With `Cc1ccc(NC(=O)C2c3ccccc3C(=O)N3CCc4ccccc4C23)nc1` (centres unmarked), the “% Inhibition @ 10 uM” value is given as 1.08%.
On to `CN1C(C(=O)NCC23CC4CC(CC(C4)C2)C3)=CC(c2ccc(F)cc2)=NS1(=O)=O`, for which the “% Inhibition @ 10 uM” value is given as -4.68%.
With `O=c1oc(-c2ccco2)nc2sc3c(c12)CCC3`, the “% Inhibition @ 10 uM” value was 1.88%.
For `CCN(CC)S(=O)(=O)c1cccc(C(=O)Nc2cccnc2)c1` the value was 4.41%; for `CCC(=O)Nc1cc2c(cc1C(=O)CC)OCCO2`, 2.38%.
Next, `COc1ccc(CNC(=O)C2CCCN(C(=O)N(C)C)C2)c(OC)c1` (centres unmarked): 3.66%; `Cc1ccc(CNC(=O)Cn2nc(-n3cccc3)c3c(C)cc(C)nc32)cc1`: 1.12%; `COc1ccccc1-c1c(C)nn2c(NCC3CCCO3)cc(C)nc12` (centres unmarked): -3.21%.
For `O=C(c1ccccc1)C1CN(Cc2ccccc2)CCC1(O)c1ccccc1` (centres unmarked) the value was 3.16%; for `COc1ccc(C2CC(c3ccc(Cl)cc3)=NN2c2cccc(Br)c2)c(OC)c1` (centres unmarked), 0.968%.
As for `COc1ccc(C2=N/C(=C\c3ccccc3F)C(=O)O2)cc1OC`, the “% Inhibition @ 10 uM” value is given as 2.92%.
Regarding `O=S(=O)(c1ccc(Cl)cc1)c1nnn2c1nc(N1CCCCC1)c1ccccc12`, the “% Inhibition @ 10 uM” value is 1.89%.
On to `CN1CCN(C(=O)C2CCN(C(=O)c3cc4sccc4n3C)CC2)CC1`, for which the “% Inhibition @ 10 uM” value was -1.58%.
Regarding `CCOC(=O)C1=C(C)N(CCOC)C(=O)/C1=C\c1cc(OC)c(OC)c(OC)c1`, the “% Inhibition @ 10 uM” value worked out at 16%.
For `CCC(C)NCc1c(C(=O)O)n(Cc2ccc(C)cc2)c2cc(OC)ccc12` (centres unmarked) the value was -7.24%; for `CC(C)(C)NC(=O)CCc1nc(-c2ccc(C(C)(C)C)cc2)no1`, 2.02%; for `COC(=O)C(O)(c1ccc(N)cc1)C(F)(F)F` (centres unmarked), 0.937%.
For `Cc1ccc(C(CC(=O)N2CCC(C)CC2)N2Cc3ccccc3C2=O)cc1` (centres unmarked) the value was 4.6%; for `COc1ccc2c(c1)CC/C(=C\c1ccccc1C)C2=O`, -2.12%.
With `O=C(Cn1nnc2sc3c(c2c1=O)CCCC3)c1ccccc1`, the “% Inhibition @ 10 uM” value is listed as -0.946%.
Next, `CCOc1ccccc1-c1cc(NC(=O)Cn2ncc3c2-c2cc(C)ccc2OC3)on1`: 2.53%.
`CCNC(=O)/C(=C\c1ccc(Br)cc1)NC(=O)c1ccccc1`: the “% Inhibition @ 10 uM” value is on record as 3.96%.
Regarding `CC(C)C[C@H](NC(=O)c1cc(-c2ccco2)c(-c2ccco2)s1)C(=O)NCC#N`, the “% Inhibition @ 10 uM” value worked out at 3.19%.
On to `Cc1cc(C)c(S(=O)(=O)N2CCOCC2)c(C)c1`, for which the “% Inhibition @ 10 uM” value worked out at 1.63%.
Next, `Cc1ccc(C2CCN(C(=S)NC(C)C)C2)cc1` (centres unmarked): -4.53%; `CC(C)c1[nH]nc2c1C(c1ccc(F)c(Br)c1)C(C#N)=C(N)O2` (centres unmarked): -1.37%.
Next, `O=c1c2c(n3nnnc3n1-c1ccccc1)-c1ccccc1CC21CCCCC1`: 1.27%; `CCN(CC)CC#CC(O)(c1ccccc1)c1ccccc1`: -2.7% and 3.25%.
With `COc1cc(CCNC(=O)CCCn2c(=O)c3cccn3c3cccnc32)cc(OC)c1OC`, the “% Inhibition @ 10 uM” value was determined as 3.24%.
For `Cc1cc(=O)oc2c(C)c(OCC(N)=O)ccc12` the value was -0.958%.
Turning to `Cc1ccc(-c2cn3c(n2)sc2cc(C(=O)NCCCN4CCCC4=O)ccc23)cc1`, the “% Inhibition @ 10 uM” value was 5.37%.
For `O=C1N/C(=C/c2ccc(F)cc2)C(=O)N1c1cccc(Cl)c1` the value was -5.05%.
With `O=C(c1ccc(CS(=O)(=O)c2ccc(Br)cc2)o1)N1CCOCC1`, the “% Inhibition @ 10 uM” value is -3.32%.
Take `CN(Cc1ccccc1)C(=O)CCn1c(=O)c2cccn2c2cccnc21`: the “% Inhibition @ 10 uM” value is given as -5.37%.
For `O=C(Cc1nc[nH]n1)NCCc1ccccc1` the value was 1.03%.
With `C=CC/N=C1\SC(CC(=O)Nc2ccccc2C)C(=O)N1S(=O)(=O)c1ccc(C)cc1` (centres unmarked), the “% Inhibition @ 10 uM” value was -4.63%.
On to `Cc1cccc(-c2[nH]c3c(C#N)cnn3c2NCCC(C)C)c1`, for which the “% Inhibition @ 10 uM” value came out at 3.84%.
Take `O=C(c1cccnc1)N1CCN(Cc2ccc(Cl)cc2)CC1`: the “% Inhibition @ 10 uM” value is listed as -0.968%.
For `CNS(=O)(=O)c1ccc(NC(=O)c2cnn3c(C(F)F)cc(-c4ccc(C)cc4)nc23)cc1`, the “% Inhibition @ 10 uM” value is reported as -5.71%.
For `O=C(NC1CCS(=O)(=O)C1)c1ccco1` (centres unmarked) the value was -1.56%; for `COc1ccc(N2CCN(Cc3ccc(OC)c(OC)c3)CC2)cc1`, 6.08%; for `CCC(C)c1ccc(NC(=O)c2c(Cl)cnn2CC)cc1` (centres unmarked), -4.76%.
For `COCCNC(=O)C1CCCN(S(=O)(=O)N2CCC(C)CC2)C1` (centres unmarked) the value was -0.546%; for `COc1ccc(OC)c(NC(=O)COc2ccc(C(C)C)cc2)c1`, 0.52%.
As for `CCC(CC)N1CCN(c2ccc3nc(C(=O)NCc4cccc(Cl)c4)ccc3n2)CC1`, the “% Inhibition @ 10 uM” value is -8.51%.
For `COc1cc(CNCCO)cc(Br)c1OCc1ccccc1Cl` the value was -6.43%; for `CC1=CC2=NC(=O)/C(=C\c3cc(C)n(-c4cccc(C(F)(F)F)c4)c3C)C(=N)N2O1`, -5.34%; for `CCN1CCN(Cc2c(NC(=O)c3ccccc3)sc(C)c2C)CC1`, 2.64%.
As to `Cc1ccc(-c2cn3c(n2)sc2cc(C(=O)NCc4cccnc4)ccc23)c(C)c1`, the “% Inhibition @ 10 uM” value turned out to be 1.64%.
In the case of `Cc1ccc2c(CNCC3CCCO3)c(C(=O)O)n(Cc3ccccc3F)c2c1` (centres unmarked), the “% Inhibition @ 10 uM” value is recorded as 1.76%.
For the compound `COc1ccc(OC)c(NC(=O)c2c(OC)cccc2OC)c1`, the “% Inhibition @ 10 uM” value is on record as -3.44%.
In the case of `O=C(NC1CCCc2ccccc21)C(NS(=O)(=O)c1cccc2nsnc12)c1ccccc1` (centres unmarked), the “% Inhibition @ 10 uM” value was determined as 3.63%.
For `Cc1ccc(N2CCCn3c2nc2c3c(=O)[nH]c(=O)n2C)cc1` the value was 3.67%; for `COc1ccccc1NC(=O)C1=C(C)N=C2CC(C)(C)CC(O)=C2C1c1ccc2c(c1)OCO2` (centres unmarked), -0.25%.
Next, `N#Cc1ccc(Oc2ccc(OCc3ccccc3)cc2)cc1C#N`: -6.83%; `CC1=C(c2ccc(C)c(C)c2)S(=O)(=O)N=C1NCCCc1ccccc1`: 2.27%; `CCN(CC)c1nc(-c2cccnc2)nc2ccccc12`: 5.04%.
Next, `Cc1cc(C)c2ncc(C(=O)O)c(O)c2c1`: -1.4%.
As to `Cc1cc(C)c2nc(N(C)C)cc(N)c2c1`, the “% Inhibition @ 10 uM” value is -4.96%.
`COCCNC(=O)c1cc2c(s1)CS(=O)(=O)C2`: the “% Inhibition @ 10 uM” value is given as -5.2%.
For the compound `CSc1ncc(C(=O)Nc2ncccc2C)c(-c2ccccc2)n1`, the “% Inhibition @ 10 uM” value is given as 1.6%.
Next, `CS(=O)(=O)C1=NSC2=NC(=O)/C(=C\c3ccc(-c4ccccc4Cl)o3)C(=N)N21`: 1.85%; `CCOc1ccc(N2C(=O)CC(N3CCCCCC3)C2=O)cc1` (centres unmarked): 3.17%; `Cc1ccc(OCCCCCN2CCC(C)CC2)cc1`: 0.565%.
Next, `COc1ccc(/C=C/c2sc(C)c(C)[n+]2C)cc1`: 2.1%; `COc1ccc(NC(=O)CN(c2ccccc2F)S(C)(=O)=O)c(OC)c1`: -1.36%.
